Results published in publication PMC7819943, “Rice protein-binding microarrays: a tool to detect cis-acting elements near promoter regions in rice”.
The other results are listed elsewhere or left out.

Each sequence was assayed against T1, OsWOX13 (Oryza sativa, UniProt Q5QMM3 1-267) (assay: protein-binding microarray (RPBM); PBS, 2% BSA, 51.3 ng/ul salmon testes DNA, 50 uM zinc acetate, 200 nM TF, 25 C, 1 h; high values mean tight binding). Settings: protein: recombinant; tags: N-terminal polyhistidine and DsRed monomer fusion (pET32a); label: CyDye5-dUTP incorporated in the synthesized complementary strand; 3' TTTTT single-stranded linker to array surface; dsDNA, one strand shown.
T1 sequence: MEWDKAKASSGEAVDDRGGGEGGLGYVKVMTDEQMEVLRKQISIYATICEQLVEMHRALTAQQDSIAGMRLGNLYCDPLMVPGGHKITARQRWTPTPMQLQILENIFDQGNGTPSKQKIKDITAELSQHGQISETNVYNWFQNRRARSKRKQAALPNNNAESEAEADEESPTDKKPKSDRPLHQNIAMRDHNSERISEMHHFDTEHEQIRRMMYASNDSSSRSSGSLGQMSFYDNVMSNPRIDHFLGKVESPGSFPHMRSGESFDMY
Outline: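 Binding signal is defined as the fluorescence intensity of each feature in arbitrary units, read on an Axon 4000B scanner. Transcription factors with N-terminal polyhistidine and DsRed fusions came from E. coli BL21-CodonPlus and were purified on Ni–NTA. They were incubated at 200 nM for 1 h at 25 °C on a custom Agilent array that had been made double-stranded with Cy5-dUTP, with 50 µM zinc acetate present, and the array was washed.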

Sequence	binding signal
CCAGCAATCAGATATCCTGAGATAGACAGAGACAGCACAGCGGAGTCACCTAGTGCAG	14200 fluorescence intensity (a.u.)
AGAAATTGATTATGGATGAGTGCCCTTCTGCCTATTATGTCGGAGTCACCTAGTGCAG	55900 fluorescence intensity (a.u.)
GATAAATTTATTGAGATTTAGTGTTATAAATTTTGCTAATCGGAGTCACCTAGTGCAG	17400 fluorescence intensity (a.u.)
CTCTTCATTGATTAGTCCTATCCAGTCAGGAACAAAGCTCCGGAGTCACCTAGTGCAG	29900 fluorescence intensity (a.u.)
ATATACTGGCAGTTTTAATTACTACTCATAGCCAGTACTGCGGAGTCACCTAGTGCAG	3680 fluorescence intensity (a.u.)
TACAATTCCCAATTTAAAATTAACATTAAAGTATTGCACACGGAGTCACCTAGTGCAG	6230 fluorescence intensity (a.u.)
TGAAACGAATAATAAATGAAGTCAAGAGAACCAATATGGCCGGAGTCACCTAGTGCAG	3750 fluorescence intensity (a.u.)
ATAATCTGTAATTTGTTCTTTTAAGTTCTATTTTCTTTTCCGGAGTCACCTAGTGCAG	4660 fluorescence intensity (a.u.)
CTATAAATTAAGAAGTACTAACATATAACACACAAACTCTCGGAGTCACCTAGTGCAG	8050 fluorescence intensity (a.u.)
GCTACTAATCTGTTTGGATGATACAGATATTATCAATTGGCGGAGTCACCTAGTGCAG	4510 fluorescence intensity (a.u.)
AAAACACATCAATTGCAATTGCCTTTTACATGCCACTTTGCGGAGTCACCTAGTGCAG	3270 fluorescence intensity (a.u.)
CCATTCAGTCTTGTGCTTGATTTGACATGGATCGGATGCTCGGAGTCACCTAGTGCAG	7740 fluorescence intensity (a.u.)
AATCAAATTGACACGAGCAAGAAAACCGCACAAGTTAGTACGGAGTCACCTAGTGCAG	19100 fluorescence intensity (a.u.)
TGAGATTAACAAATAAGTCACTACGTTGCTTACCACTGAACGGAGTCACCTAGTGCAG	6940 fluorescence intensity (a.u.)
GGTCTAATTGATTGTTTGTCGTCAGAAAAGAAAATCTTATCGGAGTCACCTAGTGCAG	28000 fluorescence intensity (a.u.)
CGTATGATTAGCTGAAATAACCAACGTTTCAAAAGTAGTACGGAGTCACCTAGTGCAG	15600 fluorescence intensity (a.u.)
TTTGATTTTAGATAATAACAGAGAAAACATTCCTTGTGGTCGGAGTCACCTAGTGCAG	28800 fluorescence intensity (a.u.)
CACTTTGATTATGATGAGATCTTTATTGTCTGTTACCTGGCGGAGTCACCTAGTGCAG	41100 fluorescence intensity (a.u.)
GAATCTATTGAGCCTAATTAATCCATGATTAGCCTATGTGCGGAGTCACCTAGTGCAG	7730 fluorescence intensity (a.u.)
CTAGACTTAAATTGGAGAGAATGCATGACAGCACACCACACGGAGTCACCTAGTGCAG	21600 fluorescence intensity (a.u.)
ATGATTGGAGTGGGGCCATAAAATGATGAACCTGAAGTCTCGGAGTCACCTAGTGCAG	20400 fluorescence intensity (a.u.)

Sequence	binding signal
CAGTTGTGATGATAATTGTGTTATTTATGTGAGGCACGAGCGGAGTCACCTAGTGCAG	9030 fluorescence intensity (a.u.)
AATTAATTGAACTTGCAACCTTAATTTAGATTGTATAAGTCGGAGTCACCTAGTGCAG	30100 fluorescence intensity (a.u.)
TATGATAGGTAGGACCAGATATTAATAGTATAGTAAGCAACGGAGTCACCTAGTGCAG	6970 fluorescence intensity (a.u.)
CTGACAATCACACACACGACAATGCACGCACGCGCACAACCGGAGTCACCTAGTGCAG	3700 fluorescence intensity (a.u.)
GATATTCAATCACCACATATGCCTTGTTTATTAGTATTACCGGAGTCACCTAGTGCAG	14400 fluorescence intensity (a.u.)
CTGTAATTTGGGATGATAATATTCTCTCCAAGAGCGCCCACGGAGTCACCTAGTGCAG	24700 fluorescence intensity (a.u.)
AACTTGCATACCAGTGGAATTCTTCAGGCTGGTCATGGAGCGGAGTCACCTAGTGCAG	65500 fluorescence intensity (a.u.)
TTTTAATGAAACTAATTTTGTGTTGTAGAAATTGCTAAACCGGAGTCACCTAGTGCAG	5890 fluorescence intensity (a.u.)
GAGTCCATCGTAAACAGCCAAGATTGGATCGCTACCAATGCGGAGTCACCTAGTGCAG	3150 fluorescence intensity (a.u.)
CCAAACAGATTGAACTCGACGATTGGACGAATACGGCGATCGGAGTCACCTAGTGCAG	58900 fluorescence intensity (a.u.)
ATAGTTTATTTTATTTTAATTTGCCCTCTCTTAGAATTGACGGAGTCACCTAGTGCAG	4810 fluorescence intensity (a.u.)
GCCCCAAAATTGATTGAAGTTTGCGAACGGTGGAAGAAGACGGAGTCACCTAGTGCAG	33100 fluorescence intensity (a.u.)
TATGAATTGGCTATCAGATTGGTTATAAATAAATTGGAGCCGGAGTCACCTAGTGCAG	22600 fluorescence intensity (a.u.)
TAATAATAATAATAATAATAATAATAATAACACATCGCACCGGAGTCACCTAGTGCAG	4120 fluorescence intensity (a.u.)
ACCGCGGTAACCACGTGATTATCATGAAAATCACACGGTTCGGAGTCACCTAGTGCAG	11300 fluorescence intensity (a.u.)
ACTTAATTAATTATATGCTAAAGCCCAGTCAATTTGCCTTCGGAGTCACCTAGTGCAG	47700 fluorescence intensity (a.u.)
GCTGTGTTTGAATTAATTGATGGACAAATGAAACACAAAACGGAGTCACCTAGTGCAG	30400 fluorescence intensity (a.u.)
GTCAAATCATGGCGTAATTGGGCTTAAAAGATTCGTCTCGCGGAGTCACCTAGTGCAG	30800 fluorescence intensity (a.u.)
GGTATTAACGTATGATTAATTGAGTTTCAATTATTACAAACGGAGTCACCTAGTGCAG	30300 fluorescence intensity (a.u.)
AGATTGACAGAGTGGGTCTGTCTATAAGAATGAAGGATGTCGGAGTCACCTAGTGCAG	19800 fluorescence intensity (a.u.)
TATAATTACATTGTAACTGTATTGTAAATACATTTTAATTCGGAGTCACCTAGTGCAG	5830 fluorescence intensity (a.u.)
